For 73 sequences, binding signal (log2 normalized intensity) results are on record in paper PMC10726135.

The list shows a part of the results. At the low end of the ranking the order means little. The protein was read in a cell extract, so binding may be indirect.

The target of the assay is T1, HNF4alpha2 (COS-7 nuclear extract) (UniProt P41235).
T1 sequence: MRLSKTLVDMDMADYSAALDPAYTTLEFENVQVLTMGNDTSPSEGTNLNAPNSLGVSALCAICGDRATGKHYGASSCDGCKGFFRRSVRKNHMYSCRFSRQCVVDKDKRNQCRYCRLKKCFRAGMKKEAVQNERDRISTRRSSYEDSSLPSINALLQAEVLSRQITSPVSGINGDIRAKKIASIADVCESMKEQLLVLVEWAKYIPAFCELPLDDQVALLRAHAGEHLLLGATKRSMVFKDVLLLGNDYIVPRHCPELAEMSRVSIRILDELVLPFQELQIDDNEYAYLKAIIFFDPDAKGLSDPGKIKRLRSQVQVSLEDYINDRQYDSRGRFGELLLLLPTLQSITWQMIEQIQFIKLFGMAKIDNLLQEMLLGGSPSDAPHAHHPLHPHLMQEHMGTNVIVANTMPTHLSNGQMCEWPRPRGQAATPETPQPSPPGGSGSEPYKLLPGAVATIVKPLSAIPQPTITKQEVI
In words: protein-binding microarray. The settings on record: COS-7 nuclear extract on double-stranded Agilent 4x180k PBM; binding buffer, salt, pH and temperature not given; high values mean tight binding; double strand, one strand shown; sequences stand for … in …GCCTAGGGAGATTAGAGTATCGGTCGA
On to GTGCAAACTTTTTCCTTTTCTTATCTGTTC, for which the binding signal (log2 normalized intensity) turned out to be 1.83.
As to CAAAGGCACAGATCATATGGCCCACAAAGC, the binding signal (log2 normalized intensity) was -1.14.
For ACGTCGCTGCCGCAGATCCCCGCTCCCCTC, the binding signal (log2 normalized intensity) turned out to be 3.84.
With GTGTGGGACTTTGGTCTGCTGAGTCTCATG, the binding signal (log2 normalized intensity) worked out at 1.74.
As to CAGGGGGGCGCCTACGGACGGGTAAGAGTC, the binding signal (log2 normalized intensity) was -1.1.
Consider AGGTCCAAGCAGATGCTTTGAAGTGTAAAA, for which the binding signal (log2 normalized intensity) is -0.0949.
Under TTTACCTGCCTGTGCTGTGGCTGCCAAGAC stands -1.13; under TCAAAGGCCAAATTGACACCGTATCATCAA, -1.03.
For the sequence AGTGCAAGCAAACATACTGCTTATTTAAAT, the binding signal (log2 normalized intensity) was -1.09.
With GCAAGAGAATCAGAGAGATACTGAACCTTG, the binding signal (log2 normalized intensity) worked out at 2.1.
For TCCCCCGCCAGATGTTTTTACCCTGAAGGA, the binding signal (log2 normalized intensity) worked out at 2.58.
Regarding CAGCTACACAAAGGCAGAGCACTAAATCTC, the binding signal (log2 normalized intensity) was -1.08.
As for CACCTCTCACCTGGATGTTTTGATGAACTT, the figure is 2.32; as for CACCCTTCAGCAAATAGTGGGAGGTGGAAG, -1.05; as for TATTGTAAAAGAAAGTGAGCAGGCAGTGTC, 0.633.
As to ATTCACCAGGCAATCAGCCTTAGGTATGCC, the binding signal (log2 normalized intensity) is -1.08.
For GCCTCTTGACCCCTTGGCCCCGCTGTCCTG, the binding signal (log2 normalized intensity) amounted to 3.93.
Under ATGGGCAAAGGACAATAATGAATAAGCACG stands -1.1.
Under TTTCCCCTAGTTACAACTGTAAACATCTAA stands 0.797; under GAAGGAGAGTGACCTCTGCTTGAAGGCATT, 0.57; under TTTACTCAGAAAGGTCAGCGCTTTGGTAGG, 1.41.
As for CCTACATAGAGAGCAGTCTTGAGCGCAAAT, the binding signal (log2 normalized intensity) was -1.2.
On to AGTAGCTCATTTATTATTTGTCTGGGTTAT, for which the binding signal (log2 normalized intensity) is 1.93.
In the case of TGGTGGGTCAAGGTGCAAAGAGATGGGGAG, the binding signal (log2 normalized intensity) stood at 0.918.
Turning to GTGTTGACCTCTGGACCTCATCTTCCTCCC, the binding signal (log2 normalized intensity) was 4.53.
Under CACAGGGGAAACACAGACTCCAAAGAATGG stands -1.15.
In the case of CTTTGAAATGTCCTGAGTGATTGTAGTGTC, the binding signal (log2 normalized intensity) is 1.82.
Under AGTCTTGGATCGGGATGATCAATGTGTAGT stands 1.89.
For the sequence TGTCCCCAAGATTGAGGCCAGCAAAGGGCA, the binding signal (log2 normalized intensity) was 1.83.
Take GCGGTCCGCAGCGCTGGTGGCTGCAAGGTT: the binding signal (log2 normalized intensity) was -0.959.
With CCCCCCGCCGCATCTACCAGCGTAATTCTG, the binding signal (log2 normalized intensity) worked out at 2.44.
For the sequence GAGGTGCCAGAAACCTGACTTCCAATTTAC, the binding signal (log2 normalized intensity) was -0.709.
In the case of ATCTTTGACCTGGAGCATGACCCTTTGCAG, the binding signal (log2 normalized intensity) was found to be 2.68.
Consider GTCAAAAATCTTAAGGAGGAGTGCTAGAGA, for which the binding signal (log2 normalized intensity) is -1.07.
For the sequence CAGTGTCATTTACAGAATTTCTCAGATGCC, the binding signal (log2 normalized intensity) was 0.153.
Consider CACTTTGCTCCCTCCTTCAGTGCTCTGTTG, for which the binding signal (log2 normalized intensity) is 1.37.
As for GGACCTTGCCCTTTAGTTATCTCTTCTTTC, the figure is 4.59.
Take AGTGCCCTTCCACTTAGGCTTGCAATGCGG: the binding signal (log2 normalized intensity) was -1.16.
As for TCGAGGCCTCTTTATCTCCTCCCCTTGAGA, the figure is 2.79; as for AGAGCAAAGATCATCTGGTGGCTTGAGTTG, 0.0929.
As for GGCCGTGAAGCCGTCCTGTCCTGGACTTTC, the figure is 4.02; as for AGAGTCCGGGGCAAACAAGGGCAACTCTAA, -1.02; as for CCAACGGGCCACGCCCTGCACCCTACGTAA, -1.2.
Consider TGCGCCTCCCTAGAGCAGCAGTAGGCTCTC, for which the binding signal (log2 normalized intensity) was -1.15.
Under GGATCTGGCAGGGGCGCGGCCTAATGCCTG stands -0.932.
As to AGGACAAAGTCCAAGGAAGGGCAAACTCTA, the binding signal (log2 normalized intensity) amounted to 2.88.
On to TTCATTGCTTTGAGCATGAGAGTTCATTGC, for which the binding signal (log2 normalized intensity) was found to be 1.1.
As to CTCCAAGGTGTCCAGCTTAGAGTGGACACA, the binding signal (log2 normalized intensity) came out at 1.24.
For GTAGTGATCCTGGTAGGGGGGTGTTATCTC, the binding signal (log2 normalized intensity) was -0.0378.
On to GGATGCTGAGGTGGGAGGATCGCTTGAGCC, for which the binding signal (log2 normalized intensity) was -1.24.
As to CGAGGCCGAGCCTCAGCCGGGAGAGGAGGC, the binding signal (log2 normalized intensity) is -1.11.
As for AAAGATAGTTGTAGTTACAGCTCATTAATC, the figure is 0.177; as for AACATGTAAATATGACCTTTGCTTTTCAAG, 4.29.
Under AGGCTCCCTCCCTGGGAGGCAGGACCTTGG stands 0.689.
As for GAGTAGGTTCTCAGCTGACATTGGTGGAAT, the figure is 1.36.
In the case of TTCCCCTGACAAGTATCTCGGTCAAACCTT, the binding signal (log2 normalized intensity) came out at 0.885.
Under CTCCAGCCACCCTGAAGGCTGAGCCTAGGA stands -1.23; under CTTCAGTCCTTCCCCCGCCAGATGTTTTTA, 3.94.
On to ACCTGAAAGAGCAACTACTCTCTCTTCTGG, for which the binding signal (log2 normalized intensity) was -1.06.
Turning to TGTAGGGAAATAAAACAGTCCATTTCAGTG, the binding signal (log2 normalized intensity) was -0.528.
With ACAGCATTAAGCTGAGGCAGAGTTGTTTGC, the binding signal (log2 normalized intensity) was -0.0646.
For the sequence TGGGGCCCATTACAGACTTTCAACAAGGTG, the binding signal (log2 normalized intensity) was found to be 1.28.
Take CAGCTGATGAGGCACCAACACTTCCCAATC: the binding signal (log2 normalized intensity) was -1.07.
Turning to AGACTTGGGTTCAAAGAGCACATTCCTGCA, the binding signal (log2 normalized intensity) stood at 2.96.
With TCCTGCTGGGCAGAGGGCAGAAGCCTCTCT, the binding signal (log2 normalized intensity) was -1.04.
GTATTACCTGCATCTGCCCAGCAGAGCAGT: the binding signal (log2 normalized intensity) is -1.06.
Turning to ATAAAGGGCAGGAACATCAGACACAGAGAT, the binding signal (log2 normalized intensity) was -1.1.
Take CCTAGAAAAACAACTAAAGGAATGCGCCTG: the binding signal (log2 normalized intensity) was -0.898.
Take AAACAGGAAAAAGGGACAAAACTTCAAAGC: the binding signal (log2 normalized intensity) is -1.06.
Regarding GTCCTGGGGCGATGCTTCCAAAGTCCACAG, the binding signal (log2 normalized intensity) stood at 4.35.
For the sequence CCTGTGCCCACTTTCCTGGGCCGGGGTAGC, the binding signal (log2 normalized intensity) was -0.159.
For ATAACGTTACAGTGGAGAAACCTGACAGAC, the binding signal (log2 normalized intensity) is -1.09.
As to AATAAAGTGGCAACCCTTGACCCCAGTAAC, the binding signal (log2 normalized intensity) came to 4.81.
